Reference: PubChem BioAssay AID1347120 (National Center for Advancing Translational Sciences (NCATS), 2019)
Where “and” joins values, the source holds several entries; their conditions need not be identical. Equal entries are not always repeated. The campaign covered roughly 390,000 compounds. About 930 (0.24%) were called active. Inconclusive results, whose numbers are uncertain, are shown with a selection of clear calls. Calls follow the shape of the dose curve; as a rule, active = well fitted activation curve with a large enough effect; inconclusive = small, poorly fitted or top-dose-only effect; inactive = no such curve, though single readings can be large or run the other way. Potencies of inconclusive entries are doubtful fits and often do not repeat.

test: qHTS for Suppressors of FUS Proteinopathy: Primary screen using FUS-linked yeast assay; also: nearly all actives have a fitted effect of over 55% in size; settings: S. cerevisiae FUS-expressing, OD600, 24 h; Potency: growth rescue; series mostly up to 76.6 µM
Procedure, shortened: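 S. cerevisiae expressing FUS from galactose induction served as the toxicity model. Growth after 24hr at 30C, read as absorbance at 600 nm, indicates suppression of toxicity; compounds dosed at several concentrations.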
Potency is read from the fitted curve at half-maximal effect; tags tell the direction and shape of the fitted curve.

Compound | Potency
CC(C)(C)C(=O)NNC(=O)COc1ccc2ccccc2c1Br | inactive
CCOc1ccc(C2CC(=O)NC(NC(=O)c3cccc(Cl)c3)=N2)cc1 (stereo not given) | inactive
CN(Cc1ccccc1)C(=O)c1cccc(NC(=O)Cc2ccc(NC(=O)C3CCCN(C(=O)c4ccccc4)C3)cc2)c1 (stereo not given) | inconclusive: 50.1 µM [activator, single point]
Cc1cc(C)c(NS(=O)(=O)c2ccc3c(c2)CC(C)N3C(=O)C2CCC2)c(C)c1 (stereo not given) | inconclusive: 50.1 µM [activator, single point]
CCN(CC)S(=O)(=O)c1ccc(NC(=O)CN(c2cccc(C)c2)S(C)(=O)=O)cc1 | inconclusive: 2.51 µM [activator, full curve]
O=C(N/N=C/c1cc2cc3c(cc2nc1Cl)OCCO3)c1ccccc1O | inconclusive: 8.91 µM [activator, single point]
CCC(=C(c1ccc(OC)cc1)c1ccc(OC)cc1)c1cn(CC(O)CN2CCN(C)CC2)c2ccccc12 (stereo not given) | inconclusive: 31.6 µM [activator, single point]
O=S1(=O)c2cccc3cccc(c23)N1Cc1ccc(-c2nnco2)cc1 | inconclusive: 25.1 µM [activator, partial curve, poor fit]
COc1cccc(CNC(=S)OC2CCC23CCC(c2ccccc2)CC3)c1 (stereo not given) | inactive
O=S1(=O)c2ccc(N3CC[C@@H](O)C3)cc2OCCCN1C1CC1 | inactive
FCCCOc1ccc(/C=N/OCc2ccc(Cl)cc2)cc1 | inconclusive: 11.2 µM [activator, single point]
Cc1cccc(C(=O)NC(C(=O)Nc2nc(-c3ccccn3)cs2)C(C)C)c1 (stereo not given) | inactive
CCn1cc2nc(SCC(=O)Nc3ccc(OC)c(Cl)c3)n(Cc3ccc(OC)cc3)c(=O)c2n1 | inactive
CCN(CC)S(=O)(=O)c1cccc(C(=O)OCC(=O)Nc2ccc3c(c2)c2ccccc2n3CC)c1 | inconclusive: 7.08 µM [activator, full curve, poor fit]
Cc1ccc(Nc2ccc3cc(S(=O)(=O)N4CCCCC4)ccc3n2)cc1F | inactive
COc1cc(C)c(NC(=O)COc2ccc3c(c2)OCO3)cc1C | inactive
Cc1ccc(OCc2nnc(SC/C=C/c3ccccc3)n2Cc2ccco2)cc1 | inconclusive: 22.4 µM [activator, partial curve, poor fit]
COc1ccc(-n2cnc3scc(-c4ccccc4)c3c2=O)cc1 | inactive
CC(C)N1CC2(CC(c3ccccc3C(F)(F)F)=NO2)CN1C(=O)c1ccc(C(C)(C)C)cc1 (stereo not given) | inconclusive: 50.1 µM [activator, single point]
CCc1ccccc1N(C)C(=O)Cn1cnc2sc(C)c(S(=O)(=O)N3CCC(C)CC3)c2c1=O | inactive
COc1cc(C2CC(c3c(C)cc(C)[nH]c3=O)=NN2c2ccccc2F)cc(OC)c1OC (stereo not given) | inconclusive: 35.5 µM [activator, partial curve]
COc1ccc(-n2c(C)nnc2SCc2nc(-c3ccc(OC)c(OC)c3)no2)cc1 | inconclusive: 25.1 µM [activator, single point]
CCNc1nc(C)c2cc(Br)c(=O)n(CC)c2n1 | inactive

Compound | Potency
CN(C(=O)c1cccc(NC(=O)Cc2ccc(NC(=O)C3CCCN(C(=O)CCc4ccccc4)C3)cc2)c1)C1CCCC1 (stereo not given) | inconclusive: 22.4 µM [activator, single point]
Cc1ccccc1NS(=O)(=O)c1ccc2[nH]cc(C(=O)NC3CCCCC3)c(=O)c2c1 | inconclusive: 17.8 µM [activator, partial curve, poor fit]
N#Cc1c(-c2ccncc2)cc(-c2ccc(F)cc2)nc1N | inactive
c1ccc(CNc2nc(-c3cccnc3)cs2)cc1 | inconclusive: 2.51 µM [activator, full curve]
Nc1nc(Cl)cc(Nc2ccccc2Cl)n1 | inactive
O=C(Cn1nc(-c2ccccc2)c2c(c1=O)CCCC2)Nc1ccc(F)c(Cl)c1 | active: 10 µM
COC(=O)CSc1cnc2ccccc2n1 | inactive
O=C(NCc1cccnc1)C1c2ccccc2C(=O)N1C1CCCCCCC1 (stereo not given) | inactive
O=C(Nc1ccc(Cl)c(S(=O)(=O)N2CCCC2)c1)c1cc(=O)[nH]c2ccccc12 | inconclusive: 50.1 µM [activator, single point]
CCN(CC)C(=O)CSc1nc2c(sc(=S)n2Cc2ccco2)c(=O)n1-c1ccccc1 | inconclusive: 35.5 µM [activator, single point]
COc1ccc(-c2nc3cnccn3c2NC2CCCCC2)cc1-c1cccc(Cl)c1 | inconclusive: 31.6 µM [activator, single point] and inconclusive: 35.5 µM [activator, single point]
COc1ccc(OC)c(-c2noc(N3CCN(c4cccc(C(F)(F)F)c4)CC3)n2)c1 | inconclusive: 25.1 µM [activator, single point]
C/C(=N/NC(=O)c1ccoc1C)c1cccs1 | inactive
CCCC(C)c1nnc(NC(=O)CCS(=O)(=O)c2ccccc2)s1 (stereo not given) | inactive
Cc1ccc(CN(Cc2cccn2-c2nnc(N3CCCC3=O)s2)C(=O)Nc2ccccc2Cl)cc1 | active: 35.5 µM
Cc1cc(Nc2cc(Cl)ccc2C)n2nc(-c3ccccc3)nc2n1 | inactive
CCS(=O)(=O)c1ccc(-c2csc(-c3ccccc3Cl)n2)c(Cl)c1Cl | inactive
S=c1[nH]nc(-c2cc(-c3ccccc3)n[nH]2)n1N=Cc1cccc(Oc2ccccc2)c1 | inactive
c1ccc(-n2c(SCc3cccc4ccccc34)nnc2-c2ccncc2)cc1 | inconclusive: 31.6 µM [activator, single point]
CC(C)n1c(CNC(=O)c2ccccc2F)nnc1SCC(=O)c1ccc(F)cc1 | inconclusive: 25.1 µM [activator, partial curve]
Cc1nc(NC(=O)CC(C)C)sc1-c1csc(Nc2ccc(Cl)cc2Cl)n1 | inconclusive: 35.5 µM [activator, single point]
CC1CCN(C(=O)CSCC(=O)Nc2nc(-c3cccs3)cs2)CC1 | inconclusive: 35.5 µM [activator, single point]
